Measurements reported in the supplement of paper PMC5919970.
Counter-ions that a name gives are not always drawn. The full ranking holds about 2,000 compounds; the median of “fractional viability relative to vehicle” is about 0.92, and the lowest 2% start at about 0.11. This is one part of the list.

Test system: TYKNU
Test: fractional viability relative to vehicle; TYKNU is a high-grade serous ovarian cancer line; higher = less growth inhibition
Settings: 72 h, genotype: OPA1 knockout (sgOPA1 #2)
Outline: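 Drug treatment lasted 72 h, with cells grown at 37 °C in 5% CO2 in RPMI 1640 supplemented with 10% FBS. Beforehand, TYKNU control cells or their lentiCRISPRv2 knockout derivatives had been seeded at 500 cells per well into drug-stamped 384-well plates carrying a ~2100-compound library at 2 or 10 μM, in duplicate. Viability came from Cell Titer Glo luminescence, with averaged duplicate treatment wells normalised to duplicate control wells in the same plate position.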

COC1=C(OC)C(=O)C(CCCCCCCCCCO)=C(C)C1=O [Idebenone]
fractional viability (2uM): 0.894 | fractional viability (10uM): 1.03

CCOC(=O)c1ccc(OC(=O)CCCCCNC(=N)N)cc1 [Gabexate Mesylate]
fractional viability (2uM): 0.918 | fractional viability (10uM): 1.05

O=C(NC1CCN(CCCCC2(C(=O)NCC(F)(F)F)c3ccccc3-c3ccccc32)CC1)c1ccccc1-c1ccc(C(F)(F)F)cc1 [Lomitapide Mesylate]
fractional viability (2uM): 0.887 | fractional viability (10uM): 0.0779

COc1ccc(C(=O)CC2(O)C(=O)Nc3c(Cl)ccc(Cl)c32)cc1 (stereo not given)
fractional viability (2uM): 0.463 | fractional viability (10uM): 0.377

CC(C)(C)Cn1c(N)nc2ccc(-c3[nH]c(C(C)(C)C)nc3-c3ccc(F)cc3)nc21
fractional viability (2uM): 1.04 | fractional viability (10uM): 0.96

CCCN[C@H]1CCc2nc(N)sc2C1 [Pramipexole]
fractional viability (2uM): 0.84 | fractional viability (10uM): 0.933

C/C=C1/[C@H](O[C@@H]2O[C@H](CO)[C@@H](O)[C@H](O)[C@H]2O)OC=C(C(=O)OC)[C@H]1CC(=O)OCCc1ccc(O)c(O)c1 [Oleuropein]
fractional viability (2uM): 0.903 | fractional viability (10uM): 0.896

Cc1cc(=O)oc2cc(O)ccc12 [4-Methylumbelliferone (4-MU)]
fractional viability (2uM): 1.09 | fractional viability (10uM): 0.917

COc1cccc(-c2ccc(NC(=O)C3=C(C(=O)O)CCC3)c(F)c2)c1 [Vidofludimus]
fractional viability (2uM): 0.835 | fractional viability (10uM): 0.543

Clc1cccc(-c2nnnn2Cc2cccnc2)c1Cl
fractional viability (2uM): 0.9 | fractional viability (10uM): 0.792

Nc1ncn([C@@H]2O[C@H](CO)[C@@H](O)[C@H]2O)c(=O)n1 [Azacitidine]
fractional viability (2uM): 1.19 | fractional viability (10uM): 1.11

CC(COc1ccccc1)N(CCCl)Cc1ccccc1 (stereo not given) [Phenoxybenzamine HCl]
fractional viability (2uM): 0.639 | fractional viability (10uM): 0.481

CCCNC(C)C(=O)Nc1ccccc1C (stereo not given) [Prilocaine]
fractional viability (2uM): 1.14 | fractional viability (10uM): 0.966

CC(=O)Nc1cccc2c1c(Sc1ccc(Cl)cc1)c(C)n2CC(=O)O
fractional viability (2uM): 0.976 | fractional viability (10uM): 0.913

O=C(Nc1ccc(OC(F)(F)F)cc1)c1sccc1NCc1ccnc2ccccc12
fractional viability (2uM): 1.18 | fractional viability (10uM): 0.525

COc1cc(/C=C/C(=O)N2CCN(CC(=O)N3CCCC3)CC2)cc(OC)c1OC [Cinepazide maleate]
fractional viability (2uM): 0.929 | fractional viability (10uM): 0.991

Cc1c(-c2ccnn2C)cc(C(=O)NCc2ccc(S(C)(=O)=O)cn2)c(=O)n1-c1cccc(C(F)(F)F)c1 [Alvelestat (AZD9668)]
fractional viability (2uM): 0.916 | fractional viability (10uM): 0.938

CC(C)(C)c1[nH]cnc1/C=c1\[nH]c(=O)/c(=C/c2ccccc2)[nH]c1=O [Plinabulin (NPI-2358)]
fractional viability (2uM): 0.432 | fractional viability (10uM): 0.441

Cn1c(=O)cc(N2CCC[C@@H](N)C2)n(Cc2cc(F)ccc2C#N)c1=O [Trelagliptin]
fractional viability (2uM): 1.12 | fractional viability (10uM): 0.9

C=C1c2cccc(O)c2C(=O)C2=C(O)[C@]3(O)C(=O)C(C(N)=O)=C(O)[C@@H](N(C)C)[C@@H]3[C@@H](O)[C@H]12 [Methacycline HCl]
fractional viability (2uM): 1.53 | fractional viability (10uM): 1.18

N#Cc1ccc(-c2c(-c3ncn[nH]3)sc(N3CCOCC3)c2C#N)c(F)c1
fractional viability (2uM): 0.737 | fractional viability (10uM): 0.572

OC[C@H]1O[C@@H](Oc2ccc(O)cc2)[C@H](O)[C@@H](O)[C@@H]1O [Arbutin]
fractional viability (2uM): 1.2 | fractional viability (10uM): 1.03

O=C(c1ccc(C(=O)N2CCC(N3CCCC3)CC2)c(Nc2ccccc2)c1)N1CCC(N2CCCC2)CC1
fractional viability (2uM): 0.924 | fractional viability (10uM): 0.857

CCCC(=O)O[C@]1(C(=O)COC(C)=O)CC[C@H]2[C@@H]3C[C@H](F)C4=CC(=O)C=C[C@]4(C)[C@@]3(F)[C@@H](O)C[C@@]21C [Difluprednate]
fractional viability (2uM): 1.03 | fractional viability (10uM): 0.934

COc1ccc(NS(=O)(=O)c2ccc(N)cc2)nn1 [Sulfamethoxypyridazine]
fractional viability (2uM): 0.99 | fractional viability (10uM): 0.859

Nc1ccc(C(=O)NCC(=O)O)cc1 [4-Aminohippuric Acid]
fractional viability (2uM): 1.01 | fractional viability (10uM): 0.916

N=C(N)NC(=N)N1CCOCC1 [Moroxydine HCl]
fractional viability (2uM): 0.919 | fractional viability (10uM): 0.883

CC(=O)Oc1cccc2c1C(=O)c1c(OC(C)=O)cc(C(=O)O)cc1C2=O [Diacerein]
fractional viability (2uM): 0.946 | fractional viability (10uM): 0.847

CCN(CC)Cc1ccc2cc(COC(=O)Nc3ccc(C(=O)NO)cc3)ccc2c1 [Givinostat (ITF2357)]
fractional viability (2uM): 0.205 | fractional viability (10uM): 0.14

CC(C)(C#N)c1ccc(N2C(=O)OCc3cnc4ccc(-c5cnc6ccccc6c5)cc4c32)cc1
fractional viability (2uM): 0.833 | fractional viability (10uM): 0.566

CC(C)C[C@@H](C=O)NC(=O)[C@H](CC(C)C)NC(=O)[C@H](CC(C)C)NC(=O)OCc1ccccc1
fractional viability (2uM): 0.236 | fractional viability (10uM): 0.144

COC1=CC(c2cc3ccccc3[nH]2)=N/C1=C\c1[nH]c(C)cc1C [Obatoclax Mesylate (GX15-070)]
fractional viability (2uM): 0.431 | fractional viability (10uM): 0.283

CC1=CC(=O)NS(=O)(=O)O1 [Acesulfame Potassium]
fractional viability (2uM): 1.21 | fractional viability (10uM): 1.02

CN(C)CCC[C@@]1(c2ccc(F)cc2)OCc2cc(C#N)ccc21 [Escitalopram Oxalate]
fractional viability (2uM): 0.99 | fractional viability (10uM): 0.875

CCCC(=O)Nc1ncnc2c1ncn2[C@@H]1O[C@@H]2COP(=O)(O)O[C@H]2[C@H]1OC(=O)CCC [Dibutyryl-cAMP (Bucladesine)]
fractional viability (2uM): 0.798 | fractional viability (10uM): 0.753
